Experiments:
Magnaporthe grisea = format: in vivo; conditions: 250 ppm drug solution sprayed on test plant
Alternaia brassicicola = experiment: Test Example C: Alternaria sooty spot on cabbage; format: in vivo; conditions: 250 ppm drug solution sprayed on test plant
Excerpt: Seeds of a test plant (cabbage variety: Shikidori) were planted and cultivated until the cotyledons extended.
<Control Value> Control value=100{1−(n/3)}

Puccinia recondita = experiment: Test Example E: Brown rust on wheat; format: in vivo; conditions: 250 ppm drug solution sprayed on test plant
Phytophthora infestans = format: in vivo; conditions: 250 ppm drug solution sprayed on test plant
Botrytis cinerea = experiment: Test Example B: Gray mold on tomato; conditions: 250 ppm drug solution sprayed on test plant
Plasmopara viticola = experiment: Test Example G: Downy mildew on vine; conditions: 250 ppm drug solution sprayed (2.5 ml/pot), grape Neomuscat, 7 to 10 days after inoculation
[1] = system: Blumeria graminis f. sp. hordei; experiment: Test Example D: Powdery mildew on barley; conditions: 250 ppm drug solution sprayed on test plant

Structure (SMILES)	Test A control value (Magnaporthe grisea)	Test C control value (Alternaia brassicicola)	Test E control value (Puccinia recondita)	Test F control value (Phytophthora infestans)	Test B control value (Botrytis cinerea)	Test G control value (Plasmopara viticola)	Test D control value [1]
CCn1c(-c2c(F)cccc2F)c(C(C)(OC)C(C)C)cc(Br)c1=O (centres unmarked) [compound 523]	H (more than 50% control value)	H (more than 50% control value)	H (more than 50% control value)	L (50% or less control value)	H (more than 50% control value)	H (more than 50% control value)	H (more than 50% control value)
CCn1c(-c2c(F)cccc2F)c(C(C)(O)C(C)C)cc(Br)c1=O (centres unmarked) [compound 522]	H (more than 50% control value)	H (more than 50% control value)	H (more than 50% control value)	H (more than 50% control value)	H (more than 50% control value)	H (more than 50% control value)	H (more than 50% control value)

Reference: US11147272B2, “Pyridone compounds and agricultural and horticultural fungicides comprising the same as active ingredients” (MITSUI CHEMICALS AGRO, INC., priority 2017, dated 2021)
